Experimental data reported in the supplement of paper PMC12217912.
This is one part of the list. The full chains were built here from the parent and the listed change. Inactive controls read about 0.05.

B1: TEV protease; numbered along this chain (parent)
chain: MGESLFKGPRDYNPISSSICHLTNESDGHTTSLYGIGFGPFIITNKHLFRRNNGTLVVQSLHGVFKVKDTTTLQQHLVDGRDMIIIRMPKDFPPFPQKLKFREPQREERICLVTTNFQTKSMSSMVSDTSCTFPSGDGIFWKHWIQTKDGQCGSPLVSTRDGFIVGIHSASNFTNTNNYFTSVPKNFMELLTNQEAQQWVSGWRLNADSVLWGGHKVFMVKPEEPFQPVKEATQL

Variants of: B1
Assay: raw area under fraction-flipped curve 0-4 h after induction (AUC4h, not background-subtracted), DNA-recorder readout of cleavage of the substrate (dimensionless); higher = more cleavage of the substrate by the protease variant
Conditions: temperature: 34 °C; time window: 0-4 h after rhamnose induction
Experimental: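 In vivo DNA recorder in E. coli TOP10(DE3) ΔrhaA at 34 °C. Each TEVp single-site mutant (parent TEVp 0) is paired with a single-site variant of the 7-mer TEVs (canonical ENLYFQ|S). The substrate sits between flexible linkers in a Bxb1-sfGFP-TEVs-SsrA fusion, so cleavage stabilises Bxb1 and speeds flipping of a recombination array, read by NGS. The value is the raw area under the fraction-flipped curve over 0-4 h after rhamnose induction (AUC4h), with ≥20 reads per time point. It is not background-subtracted; inactive controls average about 0.047.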
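Further: Bxb1 expression induced with 0.2% (w/v) L-rhamnose at OD600 near 0.5, cultures sampled hourly, flipped fraction per protease–substrate barcode pair counted by paired-end Illumina sequencing.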

Variant | area with substrate CNLYFQS | area with substrate GNLYFQS | area with substrate HNLYFQS | area with substrate INLYFQS | area with substrate KNLYFQS | area with substrate LNLYFQS | area with substrate MNLYFQS | area with substrate NNLYFQS | area with substrate SNLYFQS | area with substrate TNLYFQS | area with substrate VNLYFQS | area with substrate WNLYFQS | area with substrate YNLYFQS | area with substrate FNLYFQS | area with substrate PNLYFQS | area with substrate QNLYFQS | area with substrate RNLYFQS | area with substrate DNLYFQS
F65R | 0.0658 | 0.0641 | 0.0684 | 0.0811 | 0.0677 | 0.0588 | 0.0726 | 0.0621 | 0.0585 | 0.0639 | 0.0622 | 0.0521 | 0.048 | – | – | – | – | –
K66F | 0.0561 | 0.0822 | 0.0422 | 0.0771 | 0.0738 | 0.0648 | 0.0513 | 0.0675 | – | 0.0476 | 0.0721 | 0.0694 | 0.0726 | 0.0671 | 0.0701 | 0.0711 | 0.0552 | –
K66R | 0.0741 | – | 0.062 | – | 0.0557 | – | – | 0.0643 | 0.0721 | 0.0642 | – | 0.0423 | 0.0382 | – | 0.0636 | – | 0.0871 | –
V67R | 0.0572 | 0.0501 | 0.0536 | 0.0489 | – | 0.0447 | 0.0462 | – | 0.0443 | 0.0501 | – | 0.0492 | 0.0345 | 0.048 | 0.0541 | – | – | –
K68F | 0.0811 | 0.0958 | – | – | 0.0073 | 0.0821 | – | – | 0.0502 | 0.0597 | – | 0.0652 | – | – | – | – | 0.0597 | 0.0701
D69H | 0.0868 | 0.0652 | 0.0569 | 0.0594 | 0.0523 | – | – | – | – | 0.0624 | 0.0495 | 0.0577 | – | 0.0575 | 0.0598 | 0.0481 | – | –
D69Q | 0.0608 | 0.0838 | 0.0684 | 0.0607 | 0.0446 | 0.0666 | 0.0548 | – | 0.0637 | 0.0629 | – | 0.0463 | 0.0703 | 0.063 | 0.0623 | 0.0623 | – | –
T71A | 0.0595 | – | 0.0526 | 0.0835 | – | 0.0672 | 0.053 | – | 0.0671 | 0.0607 | – | 0.0619 | 0.0698 | 0.06 | 0.068 | 0.0625 | – | –
T71F | 0.0876 | 0.0687 | 0.066 | 0.0636 | 0.059 | 0.0482 | 0.058 | 0.0581 | 0.0479 | 0.0699 | 0.0545 | 0.0499 | 0.0513 | – | 0.0656 | – | – | –
L73G | 0.0556 | – | 0.0457 | 0.0474 | 0.0415 | 0.0638 | 0.051 | – | 0.0411 | 0.054 | – | 0.0855 | 0.0429 | 0.0327 | – | – | – | –
Q74D | 0.0676 | 0.0696 | 0.0454 | 0.0612 | 0.067 | 0.066 | 0.0715 | – | 0.0562 | 0.0747 | 0.0685 | 0.115 | 0.072 | 0.077 | 0.0445 | – | 0.0615 | –
Q74G | 0.0903 | 0.0634 | 0.0645 | 0.0569 | 0.0573 | 0.0693 | – | 0.0752 | 0.0643 | 0.0718 | 0.068 | 0.0641 | 0.0537 | – | 0.0655 | – | 0.0488 | –
Q74H | 0.0782 | – | – | 0.0619 | 0.0624 | 0.0597 | 0.0566 | – | – | 0.0584 | 0.0612 | – | – | – | – | – | – | 0.065
H76E | 0.0789 | 0.0647 | 0.0654 | 0.0566 | 0.0685 | 0.0574 | 0.0584 | 0.0593 | 0.0529 | 0.0768 | 0.0558 | 0.0631 | 0.0666 | – | 0.07 | – | – | –
